# This is one part of the list.
# Tests used:
# Assay in all cases: glycan array binding signal (z-score within array); higher = stronger binding
# Settings in all cases: glycan notation: IUPAC condensed, linker removed
# [1] = target: Neu5Ac(a2-3)Gal(b1-4)GlcNAc(b1-3)Gal(b1-4)GlcNAc(b1-3)Gal(b1-4)GlcNAc
# Method in brief: (§1)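 Arrays were curated from the Consortium for Functional Glycomics database, 3228 in total, and kept only where the protein sequence was available. Binding is expressed as a within-array Z-score. This score was averaged across arrays of the same protein sequence at different concentrations or buffers and across linkers, and negative values can be read as non-binding.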
# [2] = target: Neu5Ac(a2-3)Gal(b1-4)GlcNAc(b1-3)Gal(b1-4)GlcNAc(b1-3)Gal(b1-4)GlcNAc(b1-2)Man(a1-3)[Neu5Ac(a2-3)Gal(b1-4)GlcNAc(b1-3)Gal(b1-4)GlcNAc(b1-3)Gal(b1-4)GlcNAc(b1-2)Man(a1-6)]GalNAc
# Method in brief: as §1
# [3] = target: Neu5Ac(a2-3)Gal(b1-4)GlcNAc(b1-3)Gal(b1-4)GlcNAc(b1-3)GalNAc
# Method in brief: as §1
# [4] = target: Neu5Ac(a2-3)Gal(b1-4)GlcNAc(b1-3)Gal(b1-4)GlcNAc(b1-3)[Neu5Ac(a2-3)Gal(b1-4)GlcNAc(b1-3)Gal(b1-4)GlcNAc(b1-6)]GalNAc
# Method in brief: as §1
# [5] = target: Neu5Ac(a2-3)Gal(b1-4)GlcNAc(b1-3)Gal(b1-4)GlcNAc(b1-6)[Gal(b1-3)]GalNAc
# Method in brief: as §1
# [6] = target: Neu5Ac(a2-3)Gal(b1-4)GlcNAc(b1-3)Gal(b1-4)[Fuc(a1-3)]GlcNAc
# Method in brief: as §1
# [7] = target: Neu5Ac(a2-3)Gal(b1-4)GlcNAc(b1-3)GalNAc
# Method in brief: as §1
# [8] = target: Neu5Ac(a2-3)Gal(b1-4)GlcNAc(b1-3)[Neu5Ac(a2-3)Gal(b1-4)GlcNAc(b1-6)]GalNAc
# Method in brief: as §1
# [9] = target: Neu5Ac(a2-3)Gal(b1-4)GlcNAc(b1-6)GalNAc
# Method in brief: as §1
# [10] = target: Neu5Ac(a2-3)Gal(b1-4)GlcNAc(b1-6)[Gal(b1-3)]GalNAc
# Method in brief: as §1
# [11] = target: Neu5Ac(a2-3)Gal(b1-4)GlcNAc(b1-6)[Neu5Ac(a2-3)Gal(b1-3)]GalNAc
# Method in brief: as §1
# [12] = target: Neu5Ac(a2-3)Gal(b1-4)GlcNAc6S
# Method in brief: as §1
# [13] = target: Neu5Ac(a2-3)Gal(b1-4)[Fuc(a1-3)]GlcNAc
# Method in brief: as §1
# [14] = target: Neu5Ac(a2-3)Gal(b1-4)[Fuc(a1-3)]GlcNAc(b1-2)Man
# Method in brief: as §1
# [15] = target: Neu5Ac(a2-3)Gal(b1-4)[Fuc(a1-3)]GlcNAc(b1-3)Gal
# Method in brief: as §1
# [16] = target: Neu5Ac(a2-3)Gal(b1-4)[Fuc(a1-3)]GlcNAc(b1-3)Gal(b1-4)GlcNAc
# Method in brief: as §1
# [17] = target: Neu5Ac(a2-3)Gal(b1-4)[Fuc(a1-3)]GlcNAc(b1-3)Gal(b1-4)[Fuc(a1-3)]GlcNAc(b1-3)Gal(b1-4)[Fuc(a1-3)]GlcNAc
# Method in brief: as §1
# [18] = target: Neu5Ac(a2-3)Gal(b1-4)[Fuc(a1-3)]GlcNAc(b1-3)GalNAc
# Method in brief: as §1
# [19] = target: Neu5Ac(a2-3)Gal(b1-4)[Fuc(a1-3)]GlcNAc(b1-6)[Gal(b1-3)]GalNAc
# Method in brief: as §1
# [20] = target: Neu5Ac(a2-3)Gal(b1-4)[Fuc(a1-3)]GlcNAc(b1-6)[Neu5Ac(a2-3)Gal(b1-3)]GalNAc
# Method in brief: as §1
# [21] = target: Neu5Ac(a2-3)Gal(b1-4)[Fuc(a1-3)]GlcNAc6S
# Method in brief: as §1
# [22] = target: Neu5Ac(a2-3)Gal6S(b1-4)GlcNAc
# Method in brief: as §1
# [23] = target: Neu5Ac(a2-3)Gal6S(b1-4)[Fuc(a1-3)]GlcNAc
# Method in brief: as §1
# [24] = target: Neu5Ac(a2-3)GalNAc
# Method in brief: as §1
# [25] = target: Neu5Ac(a2-3)GalNAc(b1-4)GlcNAc
# Method in brief: as §1
# [26] = target: Neu5Ac(a2-3)[GalNAc(b1-4)]Gal(b1-4)Glc
# Method in brief: as §1
# [27] = target: Neu5Ac(a2-3)[GalNAc(b1-4)]Gal(b1-4)GlcNAc
# Method in brief: as §1
# [28] = target: Neu5Ac(a2-3)[GalNAc(b1-4)]Gal(b1-4)GlcNAc(b1-3)GalNAc
# Method in brief: as §1
# [29] = target: Neu5Ac(a2-3)[Neu5Ac(a2-6)]GalNAc
# Method in brief: as §1
# [30] = target: Neu5Ac(a2-6)Gal
# Method in brief: as §1
# [31] = target: Neu5Ac(a2-6)Gal(b1-3)GlcNAc(b1-3)[Gal(b1-4)GlcNAc(b1-6)]Gal(b1-4)Glc
# Method in brief: as §1
# [32] = target: Neu5Ac(a2-6)Gal(b1-4)Glc
# Method in brief: as §1
# [33] = target: Neu5Ac(a2-6)Gal(b1-4)GlcNAc
# Method in brief: as §1
# [34] = target: Neu5Ac(a2-6)Gal(b1-4)GlcNAc(b1-2)Man
# Method in brief: as §1
# [35] = target: Neu5Ac(a2-6)Gal(b1-4)GlcNAc(b1-2)Man(a1-3)Man(b1-4)GlcNAc(b1-4)GlcNAc
# Method in brief: as §1
# [36] = target: Neu5Ac(a2-6)Gal(b1-4)GlcNAc(b1-2)Man(a1-3)[Gal(b1-4)GlcNAc(b1-2)Man(a1-6)]Man(b1-4)GlcNAc(b1-4)GlcNAc
# Method in brief: as §1
# [37] = target: Neu5Ac(a2-6)Gal(b1-4)GlcNAc(b1-2)Man(a1-3)[GlcNAc(b1-2)Man(a1-6)]Man(b1-4)GlcNAc(b1-4)GlcNAc
# Method in brief: as §1
# [38] = target: Neu5Ac(a2-6)Gal(b1-4)GlcNAc(b1-2)Man(a1-3)[GlcNAc(b1-4)][Neu5Ac(a2-6)Gal(b1-4)GlcNAc(b1-2)Man(a1-6)]Man(b1-4)GlcNAc(b1-4)GlcNAc
# Method in brief: as §1
binder,measurement,setting,value
PX9961V-pdi-562-26-562 (Parabacteroides distasonis) (protein) EIFSEITTDNYYQNSNNIYAALVNNYAKAFSTGWSDARYFLQEVTADQLMIPTRGKHGYNGGEYVRLHEHKWTVEENFVYNGWAAPFQGIALCNNTLSDFENLDFSTFKLTEETKNEYIAELRALRVWNYMFLIDFFRHVPIVTDIEEVKAQSTPLEVFNFMESELLAILPDLPKNRGVSRFDQAGVASILVRLYLNAEKWIGISKYDECEQMAQAILDGKYGEYSIDPDYRGPFRSGINGYRSKENIMEFAIKKNYFEASWLYNMWMHYQDRYSLDNDWQGWNGGNLAPSRDLYGNLYQDKLGMPFEKFPDGDIRKKAFRVISNDGDYEGFFLMGTQYKFDYEKGYGFTDEVITGTEEYNGKPLVYVDQVGRFSEGETGLAKGSHVIYGEENTGYRLIKFPWLPQSKDLFQMNSIPEIRLAEIYYSLAECKYRSGDKIGAARLLDVVRKRYYKAEDWSKFSYESNISKLTDDEFVDELGREFIGERHRRIDLIRWNRFSEGAWWDKTPDATNQDVFPIPYRALNANPLLKQTTAGF,glycan array binding signal (z-score),[1],-0.516
same,glycan array binding signal (z-score),[2],1.24
same,glycan array binding signal (z-score),[3],-0.319
same,glycan array binding signal (z-score),[4],0.75
same,glycan array binding signal (z-score),[5],-0.587
same,glycan array binding signal (z-score),[6],-0.356
same,glycan array binding signal (z-score),[7],-0.717
same,glycan array binding signal (z-score),[8],-0.361
same,glycan array binding signal (z-score),[9],-0.007
same,glycan array binding signal (z-score),[10],-0.243
same,glycan array binding signal (z-score),[11],-0.476
same,glycan array binding signal (z-score),[12],-0.76
same,glycan array binding signal (z-score),[13],-0.502
same,glycan array binding signal (z-score),[14],-0.714
same,glycan array binding signal (z-score),[15],-0.161
same,glycan array binding signal (z-score),[16],0.26
same,glycan array binding signal (z-score),[17],-0.133
same,glycan array binding signal (z-score),[18],0.905
same,glycan array binding signal (z-score),[19],1.74
same,glycan array binding signal (z-score),[20],2.66
same,glycan array binding signal (z-score),[21],-0.697
same,glycan array binding signal (z-score),[22],-0.522
same,glycan array binding signal (z-score),[23],-0.554
same,glycan array binding signal (z-score),[24],-0.616
same,glycan array binding signal (z-score),[25],-0.49
same,glycan array binding signal (z-score),[26],0.695
same,glycan array binding signal (z-score),[27],-0.308
same,glycan array binding signal (z-score),[28],1.22
same,glycan array binding signal (z-score),[29],-0.397
same,glycan array binding signal (z-score),[30],-0.037
same,glycan array binding signal (z-score),[31],-0.593
same,glycan array binding signal (z-score),[32],-0.644
same,glycan array binding signal (z-score),[33],-0.496
same,glycan array binding signal (z-score),[34],-0.436
same,glycan array binding signal (z-score),[35],0.528
same,glycan array binding signal (z-score),[36],-0.052
same,glycan array binding signal (z-score),[37],0.036
same,glycan array binding signal (z-score),[38],-0.373

# — the supplement of paper PMC8728848
